The target in assay [1] is T1, MTG3^FLAG (C-terminally FLAG-tagged MTG3) (human) (UniProt Q8NC60).
T1 sequence: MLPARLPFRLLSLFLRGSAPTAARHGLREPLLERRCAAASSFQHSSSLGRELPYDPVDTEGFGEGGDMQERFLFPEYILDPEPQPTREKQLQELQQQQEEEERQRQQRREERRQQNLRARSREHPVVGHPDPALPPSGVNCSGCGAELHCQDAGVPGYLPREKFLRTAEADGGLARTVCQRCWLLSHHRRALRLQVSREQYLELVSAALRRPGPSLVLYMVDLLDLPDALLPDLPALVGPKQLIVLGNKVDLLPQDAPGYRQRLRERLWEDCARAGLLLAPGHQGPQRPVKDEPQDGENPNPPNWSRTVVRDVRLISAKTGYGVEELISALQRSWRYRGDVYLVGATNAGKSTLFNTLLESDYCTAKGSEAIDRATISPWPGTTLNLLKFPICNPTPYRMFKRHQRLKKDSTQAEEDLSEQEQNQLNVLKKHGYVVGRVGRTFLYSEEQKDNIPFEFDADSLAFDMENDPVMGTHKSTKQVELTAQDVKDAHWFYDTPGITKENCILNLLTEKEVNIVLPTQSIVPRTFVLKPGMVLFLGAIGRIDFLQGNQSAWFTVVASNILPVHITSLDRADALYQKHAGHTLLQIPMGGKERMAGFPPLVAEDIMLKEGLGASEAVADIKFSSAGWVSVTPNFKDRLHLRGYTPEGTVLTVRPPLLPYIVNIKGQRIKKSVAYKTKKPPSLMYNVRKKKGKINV
Briefly: co-IP; anti-FLAG M2 Affinity Gel, 1 h, with lysed mitochondria or mitoplasts of HEK293 lines expressing the FLAG-tagged bait; 20 mM Tris-HCl or HEPES-KOH pH 7.4, 100 mM NH4Cl or KCl, 20 mM MgCl2, 10% glycerol, 1% Triton X-100, in some cases 0.5 mM GppNHp; eluted with FLAG peptides; western blotting. For orientation: In western blotting, separated proteins are transferred to a membrane and probed.

Protein sequences, listed by entry. Tags and fused reporters are not part of them. Residues count along the entry.
UniProt Q9H2K0, residues 32-278: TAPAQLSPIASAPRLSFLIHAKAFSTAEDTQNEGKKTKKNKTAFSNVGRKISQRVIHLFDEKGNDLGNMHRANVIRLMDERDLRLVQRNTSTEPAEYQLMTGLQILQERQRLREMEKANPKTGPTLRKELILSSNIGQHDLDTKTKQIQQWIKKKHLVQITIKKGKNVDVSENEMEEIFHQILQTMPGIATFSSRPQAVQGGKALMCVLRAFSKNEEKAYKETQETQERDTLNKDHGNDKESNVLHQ
UniProt Q96CB9, residues 26-384: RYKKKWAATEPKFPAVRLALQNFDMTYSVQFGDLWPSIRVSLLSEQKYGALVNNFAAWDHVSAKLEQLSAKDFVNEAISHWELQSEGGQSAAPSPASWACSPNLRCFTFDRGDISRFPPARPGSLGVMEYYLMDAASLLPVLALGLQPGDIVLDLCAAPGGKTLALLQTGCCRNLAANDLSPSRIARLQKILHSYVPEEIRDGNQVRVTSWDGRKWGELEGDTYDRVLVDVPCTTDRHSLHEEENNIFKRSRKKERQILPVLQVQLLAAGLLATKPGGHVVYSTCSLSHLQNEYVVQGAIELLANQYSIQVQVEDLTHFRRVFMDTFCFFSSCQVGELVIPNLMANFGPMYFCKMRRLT
UniProt Q8WVM0, residues 28-346: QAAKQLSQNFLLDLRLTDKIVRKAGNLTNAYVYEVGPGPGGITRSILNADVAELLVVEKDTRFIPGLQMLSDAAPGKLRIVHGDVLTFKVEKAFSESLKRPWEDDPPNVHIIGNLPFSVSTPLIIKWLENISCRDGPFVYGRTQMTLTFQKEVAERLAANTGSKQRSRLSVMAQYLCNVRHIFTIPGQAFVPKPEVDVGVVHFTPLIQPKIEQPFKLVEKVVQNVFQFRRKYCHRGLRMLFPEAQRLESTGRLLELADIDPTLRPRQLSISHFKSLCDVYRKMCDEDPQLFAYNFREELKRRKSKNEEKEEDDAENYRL

Assay [2] addresses T1, MTG3^FLAG (C-terminally FLAG-tagged MTG3) (human). Briefly: cryo-EM structure; native mtSSU complexes from lysed mitoplasts isolated by FLAG-immunoprecipitation of MTG3^FLAG, eluate crosslinked with 0.15% glutaraldehyde; single-particle cryo-EM, states A-G.
Assay [3] concerns the target T2, ERAL1^FLAG (human) (UniProt O75616).
T2 sequence: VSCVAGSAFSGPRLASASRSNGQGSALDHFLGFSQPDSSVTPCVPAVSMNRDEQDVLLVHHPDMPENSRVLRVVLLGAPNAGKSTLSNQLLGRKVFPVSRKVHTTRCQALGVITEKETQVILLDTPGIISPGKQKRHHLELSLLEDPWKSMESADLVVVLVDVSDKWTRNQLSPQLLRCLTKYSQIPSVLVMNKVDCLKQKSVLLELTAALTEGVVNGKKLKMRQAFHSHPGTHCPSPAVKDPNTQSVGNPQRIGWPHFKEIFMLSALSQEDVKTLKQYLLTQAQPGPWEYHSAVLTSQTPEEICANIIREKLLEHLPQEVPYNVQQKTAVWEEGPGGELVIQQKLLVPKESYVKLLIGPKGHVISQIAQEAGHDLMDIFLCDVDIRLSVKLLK
Briefly: co-IP; anti-FLAG M2 Affinity Gel, 1 h, with lysed mitochondria or mitoplasts of HEK293 lines expressing the FLAG-tagged bait; 20 mM Tris-HCl or HEPES-KOH pH 7.4, 100 mM NH4Cl or KCl, 20 mM MgCl2, 10% glycerol, 1% Triton X-100, in some cases 0.5 mM GppNHp; eluted with FLAG peptides; western blotting.

Assay [4] has as its target T3, MTG3-G499P^FLAG (human) (UniProt Q8NC60).
T3 sequence: T1 sequence with G499P
The assay is described as above.

The target of assay [5] is T1, MTG3^FLAG (C-terminally FLAG-tagged MTG3) (human). The description is as above. The source holds these as a separate data set.
Another assay deals with mtIF3^FLAG (human) (UniProt Q9H2K0). Described as above.
In assay [6] the target is T3, MTG3-G499P^FLAG (human). Described as above. The source holds these as a separate data set.
In assay [7] the target is T2, ERAL1^FLAG (human). The description is as above. The source holds these as a separate data set.

Changes are numbered by the printed parent chain. Like-named read-outs stand apart in the source and are kept apart here. These are yes or no findings as the source states them, for the method shown. For part of these data: Binding seen in cells or lysates may run through a third protein. Some entries that bind do so weakly or less than the wild type. For part of these data: Sequences can lack the tags named with a protein.

In article PMC12003892 one finds binding data, which are given here for seven molecules.

Consider “NSUN4 (from UniProt Q96CB9 26-384) (enzyme)”, for which, in assay [1], the binding result is listed as “no binding”.

With “TFB1M (from UniProt Q8WVM0 28-346) (enzyme)”, the binding result (in assay [2]; with ERAL1^FLAG (human) [3]; in the assay with MTG3-G499P^FLAG (human) [4]; in assay [1]) was “binds” each time.

With “mtIF3 (endogenous) (from UniProt Q9H2K0 32-278)”, the binding result in assay [2] and in assay [1] was “binds” each time.

B1: mtIF2 (protein, UniProt P46199 30-727)
chain: LRQWRHGFSSAYPVWTAQLCAWPWPTDVLTGAALSQYRLLVTKKEEGPWKSQLSSTKSKKVVEVWIGMTIEELARAMEKNTDYVYEALLNTDIDIDSLEADSHLDEVWIKEVITKAGMKLKWSKLKQDKVRKNKDAVRRPQADPALLTPRSPVVTIMGHVDHGKTTLLDKFRKTQVAAVETGGITQHIGAFLVSLPSGEKITFLDTPGHAAFSAMRARGAQVTDIVVLVVAADDGVMKQTVESIQHAKDAQVPIILAVNKCDKAEADPEKVKKELLAYDVVCEDYGGDVQAVPVSALTGDNLMALAEATVALAEMLELKADPNGPVEGTVIESFTDKGRGLVTTAIIQRGTLRKGSVLVAGKCWAKVRLMFDENGKTIDEAYPSMPVGITGWRDLPSAGEEILEVESEPRAREVVDWRKYEQEQEKGQEDLKIIEEKRKEHKEAHQKAREKYGHLLWKKRSILRFLERKEQIPLKPKEKRERDSNVLSVIIKGDVDGSVEAILNIIDTYDASHECELELVHFGVGDVSANDVNLAETFDGVIYGFNVNAGNVIQQSAAKKGVKIKLHKIIYRLVEDLQEELSSRLPCAVEEHPVGEASILATFSVTEGKKKVPVAGCRVQKGQLEKQKKFKLTRNGHVIWKGSLTSLKHHKDDISIVKTGMDCGLSLDEDNMEFQVGDRIVCYEEKQIQAKTSWDPGF
For the molecule B1, the binding entry (in assay [2]; in assay [5]; in the assay with mtIF3^FLAG (human)) was “binds” throughout.

B2: mtRBFA (protein, UniProt Q8N0V3 42-343)
chain: KNWLKKFASKTKKKVWYESPSLGSHSTYKPSKLEFLMRSTSKKTRKEDHARLRALNGLLYKALTDLLCTPEVSQELYDLNVELSKVSLTPDFSACRAYWKTTLSAEQNAHMEAVLQRSAAHMRHLLMSQQTLRNVPPIVFVQDKGNAALAELDQLLAVADFGPRDERDNFVQNDFRDPDAPQPCGTTEPTTSSSLCGIDHEALNKQIMEYKRRKDKGLGGLVWQGQVAELTTQMKKGRKRAKPRLEQDSSLKSYLSGEEVEDDLDLVGAPEYECYAPDTEELEAERGGGRTEDGHSCGASRE
Turning to B2, the binding entry in assay [2] is “binds”; in the assay with MTG3-G499P^FLAG (human) [6], “no binding”; in assay [5], “binds”; with mtIF3^FLAG (human), “binds”.

B3: MTG3 (endogenous) (protein, UniProt Q8NC60 1-698)
chain: T1 sequence
Take B3: the binding entry with ERAL1^FLAG (human) [7] and in the assay with mtIF3^FLAG (human) was “binds” each time.

B4: ERAL1 (endogenous) (protein, UniProt O75616 44-437)
chain: T2 sequence
With B4, the binding entry (with MTG3-G499P^FLAG (human) [6]; in assay [5]) was “binds” in each case.
